Patent publication US6022696A, “Methods of identifying agonists or antagonists of angiotensin IV” (Washington State University Research Foundation, priority 1998, dated 2000)
Entries after “also recorded” stand apart in the source; their conditions may differ. At least one peptide structure holds a part that was inferred or is arguable (an end, a ring closure or a residue). Non-standard residues stand in square brackets, D forms with d. Residues, ends and D or L forms follow the SMILES beside them. Orn = NCCC[C@H](N)C(=O)O; GABA = NCCCC(=O)O

How the values were obtained:
[1] = target: T1, AT4 receptor (Bos taurus, UniProt F1N1Q8); assay: 125I-AIV binding and competition, bovine adrenal cortical membranes; settings: for AT4 receptor binding affinity, in words / decrease in AT4 receptor binding affinity relative to AIV (or stated parent peptide): bovine adrenal cortical AT4 receptor
T1 sequence (F1N1Q8 1-1022): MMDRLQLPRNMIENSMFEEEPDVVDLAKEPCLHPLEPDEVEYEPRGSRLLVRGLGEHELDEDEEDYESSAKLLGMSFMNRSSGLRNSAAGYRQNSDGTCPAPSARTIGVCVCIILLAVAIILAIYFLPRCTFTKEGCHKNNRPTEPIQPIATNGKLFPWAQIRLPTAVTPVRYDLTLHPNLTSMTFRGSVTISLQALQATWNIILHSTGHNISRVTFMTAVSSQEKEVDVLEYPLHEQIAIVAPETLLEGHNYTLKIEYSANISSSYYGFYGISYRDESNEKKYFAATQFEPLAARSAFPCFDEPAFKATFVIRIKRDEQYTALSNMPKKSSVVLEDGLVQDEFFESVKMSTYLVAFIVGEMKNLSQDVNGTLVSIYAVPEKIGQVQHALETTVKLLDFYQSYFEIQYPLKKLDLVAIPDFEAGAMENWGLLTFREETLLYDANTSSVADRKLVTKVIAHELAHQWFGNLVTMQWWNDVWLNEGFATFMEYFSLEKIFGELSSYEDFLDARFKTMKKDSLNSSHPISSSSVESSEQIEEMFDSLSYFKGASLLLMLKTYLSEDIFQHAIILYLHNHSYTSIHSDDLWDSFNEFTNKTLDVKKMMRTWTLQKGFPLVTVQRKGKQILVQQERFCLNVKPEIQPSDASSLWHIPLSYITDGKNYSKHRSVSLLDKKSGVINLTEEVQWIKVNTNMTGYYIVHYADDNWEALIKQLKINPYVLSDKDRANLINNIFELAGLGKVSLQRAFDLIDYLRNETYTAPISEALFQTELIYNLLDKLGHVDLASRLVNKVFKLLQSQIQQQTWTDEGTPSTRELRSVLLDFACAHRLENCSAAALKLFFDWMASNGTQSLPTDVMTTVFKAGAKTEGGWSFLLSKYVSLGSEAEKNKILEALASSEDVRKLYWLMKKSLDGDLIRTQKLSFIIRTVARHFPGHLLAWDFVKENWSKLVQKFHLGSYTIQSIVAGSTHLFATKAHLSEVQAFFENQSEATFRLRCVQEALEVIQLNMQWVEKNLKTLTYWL

[2] = test system: rat kidney; assay: Renal cortical blood flow (laser doppler) after infusion into the renal artery; format: in vivo; settings: for effect of preinfusion on agonist-induced change in renal blood flow: preinfusion before the named agonist; for change in renal cortical blood flow, in words: infusion into rat renal artery, 100 pmol/min where stated
[3] = target: T1, AT4 receptor; assay: 125I-AIV binding and competition, solubilized bovine adrenal cortical receptor
[4] = test system: rat; settings: icv injection 5 min prior to testing for retention
[5] = Stability of angiotensin peptides in binding assay buffer / assay conditions; format: physicochemical; settings: 4 h at 37° C., reverse phase HPLC

For `CCC[C@H](N)C(=O)N[C@@H](Cc1ccc(O)cc1)C(=O)N[C@H](C(=O)N[C@@H](Cc1c[nH]cn1)C(=O)N1CCC[C@H]1C(=O)N[C@@H](Cc1ccccc1)C(=O)O)[C@@H](C)CC` [NVal1 YIHPF], the “greater affinity for the AT4 receptor than Orn-substituted AIV” value [1] was 4 fold and the “AT4 receptor binding affinity, in words” value [1] was “in turn higher than Orn1 YIHPF”.

For `CC[C@H](C)[C@H](NC(=O)[C@H](Cc1ccccc1)NC(=O)[C@@H](N)C(C)C)C(=O)N[C@@H](Cc1c[nH]cn1)C(=O)N1CCC[C@H]1C(=O)N[C@@H](Cc1ccccc1)C(=O)O` [VF2 IHPF] (H-VFIHPF-OH), the “AT4 receptor binding affinity, in words” value [1] was “very low affinity”.

In the case of `CC[C@H](C)[C@H](NC(=O)[C@H](Cc1ccc(O)cc1)NC(=O)[C@@H]1CCCN1)C(=O)N[C@@H](Cc1c[nH]cn1)C(=O)N1CCC[C@H]1C(=O)N[C@@H](Cc1ccccc1)C(=O)O` [PYIHPF] (H-PYIHPF-OH), the “decrease in AT4 receptor binding affinity relative to AIV (or stated parent peptide)” value [1] is reported as 8 fold.

With `CC[C@H](C)[C@H](NC(=O)[C@H](Cc1ccc(O)cc1)NC(=O)[C@@H](N)Cc1ccccc1)C(=O)N[C@@H](Cc1c[nH]cn1)C(=O)N1CCC[C@H]1C(=O)N[C@@H](Cc1ccccc1)C(=O)O` [F1 YIHPF] (H-FYIHPF-OH) the “decrease in AT4 receptor binding affinity relative to AIV (or stated parent peptide)” value [1] was 4 fold.

With `CC[C@H](C)[C@H](NC(=O)[C@H](Cc1ccc(O)cc1)NC(=O)[C@@H](N)CCCN)C(=O)N[C@@H](Cc1c[nH]cn1)C(=O)N1CCC[C@H]1C(=O)N[C@@H](Cc1ccccc1)C(=O)O` [OrnYIHPF] (H-[Orn]YIHPF-OH) the “AT4 receptor binding affinity, in words” value [1] was “higher binding affinity than AIV”.

With `CC[C@H](C)[C@H](NC(=O)[C@@H]1CCCN1C(=O)[C@H](Cc1c[nH]cn1)NC(=O)[C@@H](NC(=O)[C@H](Cc1ccc(O)cc1)NC(=O)[C@@H](NC(=O)[C@H](CCCNC(=N)N)NC(=O)CNC)C(C)C)[C@@H](C)CC)C(=O)O` [Sar1,Ile8-AII, reference compound] the “effect of preinfusion on agonist-induced change in renal blood flow” value [2] was “completely blocked the AII effect; also recorded: no effect on AIV; also recorded: unable to block the vasodilatory effect of AIV ligand”.

With `CC(C)[C@H](N)CN[C@@H](Cc1ccc(O)cc1)C(=O)N[C@H](CN[C@@H](Cc1c[nH]cn1)C(=O)N1CCC[C@H]1C(=O)N[C@@H](Cc1ccccc1)C(=O)O)C(C)C` [Val1 Val3 AIV, ^+ H3 N-Val(CH2 NH)Tyr-Val(CH2 NH)-His-Pro-Phe-COO--] the “AT4 receptor binding affinity, in words” value ([1]; listed as Divalinal AIV) was “equal or better affinity than AIV”, the “AT4 receptor binding affinity, in words” value ([1]; listed as divalinal AIV) was “an affinity equal to or better than VYIHPF” and the “change in renal cortical blood flow, in words” value [2] was “did not alter blood pressure or renal blood flow”. For the same compound, the “agonist / antagonist activity at the AT4 receptor” value ([2]; judged from renal blood flow response compared with AIV) was “potent antagonist of AT4 receptor activity”, the “effect of preinfusion on agonist-induced change in renal blood flow” value ([2]; listed as Divalinal AIV) was “no effect on AIV-induced decreases in blood flow” and the “effect of preinfusion on agonist-induced change in renal blood flow” value ([2]; listed as divalinal AIV) was “completely blocks Lys^1 AIV-induced increases in blood flow; also recorded: transforms AIV's effects on blood flow from an increase to a decrease”.

In the case of `CC[C@H](C)[C@H](NC(=O)[C@@H]1CCCN1C(=O)[C@H](Cc1c[nH]cn1)NC(=O)[C@@H](NC(=O)[C@H](Cc1ccc(O)cc1)NC(=O)[C@@H](N)C(C)C)[C@@H](C)CC)C(=O)O` [VYIHPI6] (H-VYIHPI-OH), the “AT4 receptor binding affinity, in words” value [1] is reported as “a higher affinity than the parent VYIHPF” and the “AT4 receptor binding affinity, in words” value ([1]; listed as Val1 Ile6-AIV) is reported as “higher binding affinity for the AT4 receptor than AIV”.

With `CC[C@H](C)[C@H](NC(=O)[C@H](Cc1ccc(O)cc1)NC(=O)[C@@H](N)C(C)C)C(=O)N[C@@H](Cc1c[nH]cn1)C(=O)N1CCC[C@H]1C(=O)N[C@@H](Cc1ccccc1)C(=O)N[C@@H](Cc1c[nH]cn1)C(=O)O` [AI(3-9)] (H-VYIHPFH-OH) the “AT4 receptor binding affinity, in words” value [1] was “did not alter binding significantly” and the “AT4 receptor binding affinity, in words” value ([1]; listed as V1 Y2 I3 H4 P5 F6 H7) was “does not alter binding”.

In the case of `CC[C@H](C)[C@H](N)C(=O)N[C@@H](Cc1ccc(O)cc1)C(=O)N[C@H](C(=O)N[C@@H](Cc1c[nH]cn1)C(=O)N1CCC[C@H]1C(=O)N[C@@H](Cc1ccccc1)C(=O)O)[C@@H](C)CC` [I1 YIHPF] (H-IYIHPF-OH), the “AT4 receptor binding affinity, in words” value [1] is reported as “only a slight change (an increase) in binding affinity”, the “AT4 receptor binding affinity, in words” value ([1]; listed as IYIHPF) is reported as “slight increase in binding to AT4 receptors” and the “AT4 receptor binding affinity, in words” value ([1]; listed as Ile1 YIHPF) is reported as “nearly the same binding affinity as VYIHPF”.

For `CC[C@H](C)[C@H](NC(=O)[C@@H]1CCCN1C(=O)[C@H](Cc1c[nH]cn1)NC(=O)[C@@H](NC(=O)[C@H](Cc1ccc(O)cc1)NC(=O)[C@@H](N)CCCCN)[C@@H](C)CC)C(=O)O` [KYIHPI6] (H-KYIHPI-OH), the “AT4 receptor binding affinity, in words” value [1] was “a lower affinity than the parent KYIHPF6” and the “AT4 receptor binding affinity, in words” value ([1]; listed as Lys1 Ile6-AIV) was “lower affinity than Lys1 -AIV”.

With `CC[C@H](C)[C@H](NC(=O)[C@H](Cc1ccc(O)cc1)NC(=O)CCCN)C(=O)N[C@@H](Cc1c[nH]cn1)C(=O)N1CCC[C@H]1C(=O)N[C@@H](Cc1ccccc1)C(=O)O` [GABA-YIHPF] (H-[GABA]YIHPF-OH) the “decrease in AT4 receptor binding affinity relative to AIV (or stated parent peptide)” value [1] was 250 fold.

With `CC[C@H](C)[C@H](NC(=O)[C@H](Cc1ccc(O)cc1)NC(=O)[C@@H](NC(=O)[C@@H](N)CCCNC(=N)N)C(C)C)C(=O)N[C@@H](Cc1c[nH]cn1)C(=O)N1CCC[C@H]1C(=O)N[C@@H](Cc1ccccc1)C(=O)N[C@@H](Cc1c[nH]cn1)C(=O)N[C@@H](CC(C)C)C(=O)O` [DAAI, Arg1 Val2 Tyr3 Ile4 His5 Pro6 Phe7 His8 Leu9] (H-RVYIHPFHL-OH) the “times less effective/active than AIV in competing binding” value [3] was “approximately 100 fold”.

For `CC[C@H](C)[C@H](NC(=O)[C@H](Cc1ccc(O)cc1)NC(=O)[C@@H](NC(=O)[C@H](CCCNC(=N)N)NC(=O)[C@@H](N)CC(=O)O)C(C)C)C(=O)N[C@@H](Cc1c[nH]cn1)C(=O)N1CCC[C@H]1C(=O)N[C@@H](Cc1ccccc1)C(=O)O` [AII, Asp1 Arg2 Val3 Tyr4 Ile5 His6 Pro7 Phe8, reference compound], the “change in renal cortical blood flow, in words” value [2] was “dramatic decrease in renal blood flow” and the “passive avoidance, memory retrieval (latency to reenter the dark compartment)” value [4] was “no specific effect”.

With `CC[C@H](C)[C@H](NC(=O)[C@H](Cc1ccc(O)cc1)NC(=O)[C@@H](NC(=O)[C@H](CCCNC(=N)N)NC(=O)[C@@H](N)CC(=O)O)C(C)C)C(=O)N[C@@H](Cc1c[nH]cn1)C(=O)N1CCC[C@H]1C(=O)N[C@@H](Cc1ccccc1)C(=O)N[C@@H](Cc1c[nH]cn1)C(=O)N[C@@H](CC(C)C)C(=O)O` [AI, Asp1 Arg2 Val3 Tyr4 Ile5 His6 Pro7 Phe8 His9 Leu10] (H-DRVYIHPFHL-OH) the “hydrolysis in binding buffer” value [5] was “less than 10%”.
